We go through 172 sequences from PMC6212790.

Some of the results follow. At the low end of the ranking, values are background and their order means little.

This test has as its target T1, GST-Rok (full length) (UniProt O34857).
T1 sequence: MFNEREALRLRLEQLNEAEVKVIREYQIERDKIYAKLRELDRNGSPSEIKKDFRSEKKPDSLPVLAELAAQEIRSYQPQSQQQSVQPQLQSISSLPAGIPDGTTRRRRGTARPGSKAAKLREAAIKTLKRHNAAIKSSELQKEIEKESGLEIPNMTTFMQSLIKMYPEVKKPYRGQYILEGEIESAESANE
The test can be described thus: protein binding microarray.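 Also: rank score from −0.5 (least bound) to 0.5 (best bound).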 Conditions: Rok is a gene silencer of Bacillus subtilis; high values mean tight binding; most listed sequences are background and not binding sites; double strand, one strand shown.
The sequence CGGACTAG came in with a binding signal of 0.0761 E-score. As for AACGGTGG, the figure is 0.0395 E-score. The figure for TATCGAGA is 0.102 E-score. As for CCACGCGA, the figure is -0.062 E-score; as for CGGCGCAG, -0.295 E-score. In turn, CCACGACC registered a binding signal of -0.232 E-score. The figure for TAGGTAGA is 0.361 E-score; for ATCACCCA it is -0.067 E-score. The figure for ACTACCGC is 0.245 E-score. As for CCATGTCG, the figure is -0.041 E-score; as for AATAGATC, 0.14 E-score; as for AGCATAGA, -0.0379 E-score. As to GGTCAGAA, the binding signal was -0.00663 E-score. The figure for ACGGGCCT is -0.372 E-score; for CATAAGGG it is -0.102 E-score; for TCATCTCA it is -0.0432 E-score. For the sequence ATCGTTTA, the binding signal is -0.0103 E-score. As for AATCCCCC, the figure is -0.386 E-score; as for AATTATGA, 0.157 E-score. For CGCCTAGC, the binding signal was -0.133 E-score. The figure for AGGTGGTA is 0.124 E-score; for ACCGCCTA it is -0.0824 E-score; for ACGTCAGG it is -0.293 E-score. Take AGTGCATC: the binding signal stood at 0.0814 E-score.

The sequence TGCATGCA yielded a binding signal of -0.0838 E-score. For CCTGAGCG, the binding signal is -0.245 E-score. The figure for CTGCGAAC is -0.0535 E-score; for CGTTGTGA it is 0.127 E-score; for CTAGCCAC it is 0.0157 E-score.

Regarding ATAGTACG, the binding signal came out at 0.265 E-score. Take TTCACCAA: the binding signal came to 0.0933 E-score.

Sequence TCTTGCCA registered a binding signal of -0.162 E-score. As for AGTGATGG, the figure is -0.0102 E-score; as for CACAAACC, -0.0528 E-score; as for CTATCCGA, 0.107 E-score. The figure for ATCTGTAC is 0.152 E-score; for CCATCTAA it is 0.138 E-score; for CTGGTCTA it is -0.0345 E-score. Take CGCTCTCA: the binding signal was -0.178 E-score. The figure for ACGGGCAC is -0.186 E-score; for CAGCCTGC it is -0.0412 E-score. As for CCTCCGCC, the figure is -0.31 E-score; as for ATTTTTAA, -0.0198 E-score; as for ACCTTACA, 0.0529 E-score. With GTTTAAAC, the binding signal amounted to 0.095 E-score. With AACCTACT, the binding signal was found to be 0.249 E-score. As for GTAACCAA, the figure is 0.0602 E-score. As for CAGGGGAC, the figure is -0.324 E-score; as for ATCTGTGG, -0.0438 E-score; as for AACTATTC, 0.315 E-score.

For GGATCGGA, the binding signal is -0.205 E-score. As for AGCCAGCC, the figure is -0.288 E-score; as for AGCTTGTC, 0.00488 E-score; as for CTACGAGA, 0.181 E-score.

In the case of CGAACTCC, the binding signal is -0.196 E-score. As for AACGCAGA, the figure is -0.207 E-score; as for AAGTAAGC, 0.0748 E-score; as for CGGGTTAG, -0.117 E-score. The figure for ATACACCG is 0.0288 E-score; for AGTATCCG it is 0.0731 E-score. As for ATCACTGC, the figure is -0.155 E-score; as for TGCAGAAA, -0.0501 E-score; as for GGGTGATA, 0.135 E-score.

In turn, AGAGCCGG registered a binding signal of -0.396 E-score. As for CACTAACG, the figure is 0.00614 E-score; as for AGAAGTCC, -0.0675 E-score. In turn, ATTGTTAA registered a binding signal of 0.218 E-score. As for TACCTCTA, the figure is 0.22 E-score; as for CGAATCAG, 0.0152 E-score; as for AGAGCTGA, -0.124 E-score. The figure for CTTAAGCA is -0.0622 E-score; for ATGGAAGC it is -0.0504 E-score; for CAATGTCC it is -0.116 E-score.

In the case of AACCGGCA, the binding signal was 0.13 E-score. As for AGCAGTAG, the figure is 0.165 E-score; as for CAGCGTAA, 0.0823 E-score. As for AGATGGTG, the figure is 0.138 E-score; as for CGCCGGCC, -0.303 E-score. As for GAGCATTA, the figure is 0.0953 E-score. AATTTGGC gave a binding signal of 0.000203 E-score. Sequence AGTCGAAA registered a binding signal of 0.0407 E-score. For the sequence ACTTTATC, the binding signal amounted to 0.171 E-score. As for CAGGACGC, the figure is -0.257 E-score; as for GTCCCAAC, -0.0888 E-score.

Regarding GTAACAAA, the binding signal was determined as 0.138 E-score.

Regarding GATGTGAC, the binding signal was 0.033 E-score.

As for AGGCCGTG, the binding signal is -0.268 E-score.

TACCTCGA yielded a binding signal of 0.205 E-score.

As to AGGACGGG, the binding signal is -0.241 E-score. The figure for ATTCAGCC is -0.0991 E-score. The sequence ATTTTTCA displayed a binding signal of -0.0526 E-score. In the case of ATGCACCG, the binding signal was -0.00205 E-score. As for CCGCTGAC, the figure is -0.15 E-score. The figure for ATCTAACA is 0.236 E-score.

With CTTAGCCA, the binding signal is -0.0361 E-score. As for CGCGATAA, the figure is 0.126 E-score; as for CCGCCTGC, -0.397 E-score. The figure for ATATATTA is 0.467 E-score; for AGCCCGCA it is -0.256 E-score.

CGGGTGAC yielded a binding signal of -0.349 E-score.

The sequence CCTCCCAG showed a binding signal of -0.241 E-score. As for GACTATAA, the figure is 0.178 E-score; as for CGTCGTGA, -0.0498 E-score. For CATGAACG, the binding signal is -0.0373 E-score. The figure for ACGCATAT is 0.0953 E-score; for AACTCTCG it is 0.0625 E-score. As for AGAGAGAT, the figure is 0.0321 E-score; as for TAGACAGA, 0.0181 E-score. As for GCAACGAA, the figure is 0.0403 E-score. For the sequence GGTATGTA, the binding signal was determined as 0.319 E-score. Consider CTGTGCGA, for which the binding signal is -0.251 E-score. The figure for CCACTCAG is -0.0521 E-score. In turn, ACCCAGCT registered a binding signal of 0.0254 E-score. In the case of ACAATCTC, the binding signal amounted to 0.101 E-score.

As to ACGAAACC, the binding signal is -0.0947 E-score.

In the case of GAGAGTCA, the binding signal was -0.122 E-score. Sequence CTACAGGC registered a binding signal of -0.0508 E-score. Turning to GCCTGCAA, the binding signal is -0.243 E-score. The figure for GTCAGCTA is -0.00978 E-score; for AGCTTGGA it is -0.00195 E-score; for ACTAGCGA it is 0.163 E-score.

In the case of ACGGAGCG, the binding signal was -0.13 E-score.

On to AATTGCGC, for which the binding signal is -0.0698 E-score.

Sequence CCTACATA returned a binding signal of 0.164 E-score.

In turn, GCAGATAC displayed a binding signal of 0.0143 E-score. Sequence ACCTGCTG came in with a binding signal of -0.268 E-score. Take CTGTTACC: the binding signal is 0.0232 E-score. The figure for CACCGTCC is -0.224 E-score. As for AAACGTTG, the figure is -0.0632 E-score; as for ATGCCGTC, -0.145 E-score; as for GGTTCGGA, -0.163 E-score.

Sequence AGGGACAA had a binding signal of -0.176 E-score. The figure for GGACAGAA is -0.127 E-score; for CTGAACAC it is -0.199 E-score; for CATTTATC it is 0.187 E-score.

Consider ATCATTTC, for which the binding signal is 0.0431 E-score.

Regarding CCAGCAGC, the binding signal was -0.236 E-score. As for CCAGTCCG, the figure is -0.32 E-score.

In turn, ACTGCAAT registered a binding signal of 0.0152 E-score. The figure for CAACGCGG is -0.189 E-score; for GCGGTGAC it is -0.289 E-score; for TAAATACA it is 0.333 E-score.

CCTCCGGC came in with a binding signal of -0.258 E-score. As for ACCCCACA, the figure is -0.3 E-score; as for CCCTCAGA, -0.278 E-score. The figure for CAAGAATA is -0.0771 E-score; for CACCTTCG it is -0.185 E-score. As for GAGTTGCC, the figure is -0.116 E-score; as for AGCAGACA, 0.0619 E-score. For AAGCCGGT, the binding signal was -0.157 E-score.

The sequence CTTACGCA registered a binding signal of -0.0114 E-score. As for CCGCTAAG, the figure is -0.1 E-score; as for ATCGGCAT, 0.171 E-score. As for AGGAGGGG, the figure is -0.473 E-score; as for ACTACCCA, 0.312 E-score; as for CTCCCCGC, -0.262 E-score. The figure for TCGGCTAA is 0.0514 E-score; for AGCACGCC it is 0.0264 E-score. Turning to CGTCAACG, the binding signal was -0.214 E-score. CCTGCCAC registered a binding signal of -0.329 E-score. Regarding CATAATAC, the binding signal was 0.275 E-score. The figure for CTGCGTTC is -0.134 E-score; for CTCGCACC it is -0.191 E-score; for AGATGGGA it is 0.00281 E-score. Sequence ACGTGGCT came in with a binding signal of -0.0619 E-score. As for CCCTTCAG, the binding signal is -0.307 E-score.

Sequence CAGATGCA returned a binding signal of -0.199 E-score. As for CTCCCAGC, the figure is -0.254 E-score. The figure for CCCCGTTC is -0.247 E-score.

On to ACGACCAA, for which the binding signal is -0.0477 E-score. Take AATTTTCC: the binding signal came out at 0.171 E-score.

In turn, CGAATTAA yielded a binding signal of 0.0899 E-score.
